Measurements published in PubChem BioAssay AID2451 (National Center for Advancing Translational Sciences (NCATS), 2010).
Values joined by “and” are separate entries in the source; they are usually repeats but may differ in a detail not shown here. Equal entries are not always repeated. Hit rate of the full screen: of about 290,000 compounds, about 2,100 (0.72%) were called active. Inconclusive means that the source gave no clear call. Such entries were picked first, then a sample of the others. The call rests on the fitted dose curve; in most records, active means well fitted inhibition curve with a large enough effect; inconclusive means small, poorly fitted or top-dose-only effect, or effect the other way; inactive means flat fitted curve, though single readings scatter. Potencies beside an inconclusive call are fits to weak or partial responses and may not hold up.

biological target: Fructose-bisphosphate aldolase (Giardia intestinalis (strain ATCC 50803 / WB clone C6)) (UniProt A8B2U2); experiment: qHTS Assay for Inhibitors of Fructose-1,6-bisphosphate Aldolase from Giardia Lamblia; settings: purified Giardia FBPA; activity, negative = inhibition: at 59.6 µM (top of the series) unless noted; further: nearly all actives have a fitted effect of over 55% in size
Chain of UniProt A8B2U2 (A8B2U2 whole entry, looked up): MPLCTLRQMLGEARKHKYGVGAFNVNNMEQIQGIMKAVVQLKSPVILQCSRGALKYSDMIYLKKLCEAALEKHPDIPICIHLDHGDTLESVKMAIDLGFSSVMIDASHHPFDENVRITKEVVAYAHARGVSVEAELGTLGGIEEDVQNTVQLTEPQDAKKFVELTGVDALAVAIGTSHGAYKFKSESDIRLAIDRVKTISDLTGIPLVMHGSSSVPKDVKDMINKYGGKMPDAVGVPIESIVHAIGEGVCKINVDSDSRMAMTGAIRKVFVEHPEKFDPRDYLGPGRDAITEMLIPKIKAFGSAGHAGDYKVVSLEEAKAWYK
Procedure, shortened: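 40 nM FBPA preincubated 10 min at RT with compound (up to 57.5 uM final), then substrate plus GAPDH/TPI/NAD/arsenate coupling and diaphorase/resazurin added. Fluorescence read after 20 min at RT, 525/598 nm.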
On the % scale 0 is the no-effect control and ±100 the full control effect; potency means the concentration at half of the fitted maximal effect; tags describe the fitted curve by direction and shape.

Compound | Potency | activity, negative = inhibition
Cc1ncc(CO)c(/C=N/NC(=O)c2ccc(O)cc2)c1O | inconclusive: 2.51 µM [inhibitor, full curve] | 
CC(=O)O[C@@H]1CC2C(C)(C)C(=O)C=C[C@]2(C)C2CC[C@]3(C)C(=CC[C@H]3C3CO[C@@H](C(C)(C)O)[C@H](O)C3)[C@@]21C (stereo partly drawn) |  | inactive: 1.16%
Cc1[nH]nc2c1[C@@H](c1ccccc1[N+](=O)[O-])C(C#N)=C(N)O2 | inconclusive: 31.6 µM [inhibitor, partial curve] | 
CC(CCC(=O)O)C1CCC2C3CC[C@H]4CC(O)CC[C@@]4(C)C3CC[C@@]12C (stereo partly drawn) | inconclusive: 15.8 µM [activator, single point] | 
COc1ccc(N(Cc2ccccc2)S(=O)(=O)c2cccc(C(=O)O)c2)cc1 | inconclusive: 15.8 µM [activator, partial curve] | 
CC(=O)C1=C(c2ccccc2)NC(=S)NC1c1ccc(O)c(O)c1 (stereo not drawn) |  | inactive: -17.7%
CN(CC(=O)Nc1ccccc1F)Cc1cccs1 |  | inactive: 3.14%
CCOCCCNC(=S)NC1CC2CCC(C1)N2Cc1ccccc1 (stereo not drawn) | inconclusive: 31.5 µM [inhibitor, single point] | 
O=C(N/N=C/C=C/c1ccco1)c1cnccn1 | active: 19.9 µM | 
CN(CC(=O)Nc1ccc(N2CCOCC2)cc1)Cc1c(O)ccc2ccccc12 | inconclusive: 15.8 µM [inhibitor, single point] | 
COc1cc(CN2CCN(S(=O)(=O)c3ccc(F)cc3)CC2)cc(OC)c1OC | inconclusive: 19.9 µM [inhibitor, partial curve] | 
C/C(Cn1nnc([N+](=O)[O-])n1)=N\NC(=O)c1cccc(Cl)c1 | inconclusive: 12.6 µM [inhibitor, partial curve] | 
O=C(CCc1ccccc1)NNC(=O)c1ccccn1 | active: 17.7 µM | 
CC(=O)[C@H]1[C@@H]2C(=O)N(c3cccc(Cl)c3)C(=O)[C@@H]2[C@H]2c3ccccc3C=CN21 | inconclusive: 2.51 µM [inhibitor, full curve] | 
O=C(N[C@@H](Cc1ccccc1)C(=O)O)c1cccnc1 |  | inactive: -4.65%
C/C(Cn1nnc([N+](=O)[O-])n1)=N\NC(=O)c1ccc(C)cc1 | inconclusive: 7.92 µM [inhibitor, partial curve] | 
O=c1c2[nH]cnc2n(-c2cccc(Br)c2)c(=O)n1Cc1ccccc1 | inconclusive: 14.1 µM [inhibitor, partial curve] | 
CCCN(CCO)Cc1ccc(F)c(Br)c1 | inconclusive: 19.9 µM [inhibitor, partial curve] | 
CCc1cc2c(=O)n(Cc3ccco3)c(SCC(=O)N3CCCc4ccccc43)nc2s1 |  | inactive: -0.341%
CC(C)(C)C(=O)CN1C(=O)NC(c2ccccc2)(c2ccccc2)C1=O |  | inactive: -9.33%
Cc1nc(C(=O)NNC(=O)c2ccccc2Cl)c(C(F)(F)F)o1 | inconclusive: 15.8 µM [inhibitor, partial curve] | 
Cc1nn2c(-c3ccc(Cl)cc3)nnc2s1 |  | inactive: 2.92%
CCOC(=O)/C=c1\s/c(=C\c2ccc(-c3ccccc3)cc2)c(=O)n1CC(=O)NCc1ccc2c(c1)OCO2 |  | inactive: -5.46%
O=C(CCN1CCOCC1)NCc1ccccc1 | inconclusive: 22.4 µM [inhibitor, partial curve] | 
COc1cc(CN(C)Cc2ccccc2)cc(OC)c1O | inconclusive: 17.7 µM [inhibitor, single point] | 

Compound | Potency | activity, negative = inhibition
O=C(O)COc1ccc(/C=C2\SC(=Nc3ccccc3)N(c3ccccc3)C2=O)cc1 | inconclusive: 17.7 µM [activator, partial curve] | 
CC(C)(c1ccccc1)c1ccc(OCCN2CCOCC2)cc1 | inconclusive: 8.91 µM [inhibitor, partial curve] | 
Cc1cc(C)c2ccc(C(=O)O)nc2c1O | inconclusive: 44.6 µM [inhibitor, single point] | 
O=c1[nH]n(CCO)c(=O)c2cccnc12 | inconclusive: 19.9 µM [inhibitor, single point] | 
O=C(Nc1cccnc1)c1cn(-c2ccccc2)nc1-c1cccs1 |  | inactive: -3.82%
COc1ccc(CN2CCN(S(=O)(=O)c3ccc(NC(C)=O)cc3)CC2)c(OC)c1OC | inconclusive: 7.06 µM [inhibitor, partial curve] | 
COCCn1c(-c2ccc(OC)cc2)cnc1N | inconclusive: 20 µM [activator, partial curve] | 
Cn1c(O)c(N=NC(=O)c2ccco2)c2ccccc21 |  | inactive: 0.672%
CO[C@@]1(NC(=O)CSCC#N)C(=O)N2C(C(=O)O)=C(CSc3nnnn3C)CSC21 (stereo partly drawn) | inconclusive: 25.1 µM [inhibitor, single point] | 
FCCCOc1ccc(-c2nccc(-c3ccccn3)n2)cc1 |  | inactive: -8.22%
OCCN1CCN(Cc2cc(Cl)c3cccnc3c2O)CC1 | inconclusive: 12.6 µM [inhibitor, partial curve] | 
COC(=O)c1ccc(NC(=S)NCCc2ccccc2C)cc1 |  | inactive: -0.385%
OC(CN1CCN(c2ccc(F)cc2)CC1)c1ccc(Cl)cc1 (stereo not drawn) |  | inactive: 11.3%
COc1ccc(S(=O)(=O)Cc2ccc(C(=O)NCCCN3CCc4ccccc4C3)o2)cc1 | inconclusive: 25.1 µM [inhibitor, single point] | 
CCOC(=O)c1c(CN(CC)CC)n(C)c2cc(Br)c(O)cc12 | inconclusive: 15.8 µM [inhibitor, single point] | 
O=C(CNc1cccc2ccccc12)N/N=C/c1ccccn1 | inconclusive: 15.8 µM [inhibitor, partial curve] | 
Cc1ccc(S(=O)(=O)Nc2ccc3c(c2)nc(CCN2CCOCC2)n3C)cc1 | inconclusive: 44.6 µM [inhibitor, single point] | 
CCOC(=O)c1sc(NS(=O)(=O)c2ccc(F)cc2)nc1C |  | inactive: 21.3%
COC(=O)C/C=C\[C@@H](C)[C@@H](/C=N\OC[C@@H](C)[C@H](OCc1ccccc1)C(C)C)OC |  | inactive: 0.256% [at 12.9 µM]
Clc1ccc(-n2nnnc2-c2cnc(-c3ccncc3)nc2-c2cccs2)cc1 |  | inactive: -17.1%
O=C1CSC(=S)N1N1C(=O)c2cccc([N+](=O)[O-])c2C1=O | active: 17.7 µM | 
Oc1c(C(c2ccccc2)N2CCc3ccccc3C2)sc2ncnn12 (stereo not drawn) | inconclusive: 35.4 µM [inhibitor, single point] | 
C=CCN1C=C2C(=O)C(C)(OC(=O)CCC(=O)OC)C(=O)C(Br)=C2C=C1c1ccc(OC)cc1 (stereo not drawn) | inconclusive: 1.77 µM [inhibitor, partial curve] and inconclusive: 1.41 µM [inhibitor, partial curve] | 
Cc1nc([N+](=O)[O-])c(Br)n1CC(=O)c1ccc(Br)cc1 |  | inactive: 0.0074%
Cc1nnc(C)c2c(C)n(-c3ccccc3N)c(C)c12 | inconclusive: 3.15 µM [inhibitor, partial curve] | 

Compound | Potency | activity, negative = inhibition
CCCCCCn1c(COc2ccccc2F)nnc1SCC(=O)c1c(N)n(C)c(=O)n(C)c1=O |  | inactive: 5.66%
Cc1nnc(N(Cc2ccco2)C(=O)c2ccno2)s1 | inconclusive: 22.4 µM [inhibitor, partial curve] | 
C[C@H]1c2cccc(O)c2C(O)=C2C(=O)[C@]3(O)C(O)=C(C(N)=O)C(=O)C(N(C)C)[C@@H]3[C@@H](O)C21 (stereo partly drawn) | inconclusive: 19.9 µM [inhibitor, single point] | 
COc1ccc(-n2c(N)c(C(=O)NCC3CCCO3)sc2=S)cc1 (stereo not drawn) | inconclusive: 22.3 µM [inhibitor, partial curve] | 
NC(=S)Nc1cc2ccccc2c2ccccc12 | inconclusive: 15.8 µM [inhibitor, single point] | 
Oc1cccc(/C=N/Nc2cc(N3CCCC3)nc(N3CCCC3)n2)c1 | inconclusive: 0.998 µM [inhibitor, full curve] | 
C[C@]1(OC(=O)/C=C\c2ccccc2)C[C@@H](O)[C@@]2(O)C=CO[C@@H](O[C@H]3O[C@@H](CO)[C@@H](O)[C@@H](O)[C@@H]3O)[C@H]21 |  | inactive: 0.173% [at 21.7 µM]
CC(C)=CC(=O)Nc1nnc(C)s1 |  | inactive: -1.09%
CN(C)c1ccc(C(=S)NCc2ccco2)cc1 |  | inactive: -6.85%
O=C(NCc1ccco1)c1cc(-c2ccc(Cl)cc2)on1 |  | inactive: -2.06%
CN1CCc2cc(O)cc3c2C1Cc1ccc(O)c(O)c1-3 (stereo not drawn) | active: 14.1 µM | 
O=C(CNCc1cccs1)Nc1ccc(OC(F)(F)F)cc1 | inconclusive: 17.8 µM [inhibitor, partial curve] | 
Cc1ccc(CN=Cc2[nH]c3ccc(Br)c(Cl)c3c2O)cc1 | inconclusive: 7.06 µM [inhibitor, partial curve] | 
O=C(NCCc1cn2ccccc2n1)c1cc(COc2c(F)cccc2F)on1 | inconclusive: 15.8 µM [inhibitor, single point] | 
COc1ccccc1CNc1ncccn1 | active: 17.8 µM | 
Cc1nc(-c2ccccn2)nc(SCC(=O)c2ccccc2)c1Cl |  | inactive: 11.2%
COc1cccc(NC(=O)CCN2CCOCC2)c1 | inconclusive: 17.8 µM [inhibitor, single point] | 
CN(C)CCCN(C(=O)c1ccc2c(c1)CCCC2)c1nc2cc3c(cc2s1)OCO3 |  | inactive: -22.5%
O=C(Nc1nc(-c2ccccn2)cs1)c1cccc(-n2cnnn2)c1 | active: 5 µM | 
CCSc1n[nH]c(=S)s1 | inconclusive: 7.06 µM [inhibitor, full curve] | 
CC(=O)Cc1nsc(Nc2ccc(F)cc2)n1 |  | inactive: 5.78%
CC(=O)Nc1ccc(S(=O)(=O)Nc2ccc(S(=O)(=O)Nc3nc(C)cc(C)n3)cc2)cc1 | inconclusive: 39.8 µM [inhibitor, single point] | 
CN1CCCC(OC(=O)c2cccc(Br)c2)C1 (stereo not drawn) | inconclusive: 31.6 µM [inhibitor, single point] | 
